# PMC9911399, “Two distinct binding modes provide the RNA-binding protein RbFox with extraordinary sequence specificity”
# Numbering of substitutions follows the chain as printed; changes in the protein carry UniProt numbers. The list shows a part of the results.
# T1: RBFOX1 RRM RbFoxmut (Fox-RRM*) (Homo sapiens, UniProt Q9NWB1 109-208, R118D;E147R;N151S;E152T)
# T1 sequence: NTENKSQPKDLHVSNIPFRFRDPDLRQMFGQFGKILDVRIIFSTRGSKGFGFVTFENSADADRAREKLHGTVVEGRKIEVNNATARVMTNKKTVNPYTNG
# B1: UUCAAGC (DNA:RNA)
# RNA: GGGAGACCGGAAUUCAGAUUGUCCUUCAAGCUUAAAUCCCGUCGUAGCCACCA
# DNA 1: CAATCTGAATTCCGGTCTCCC
# DNA 2: TGGTGGCTACGACGGGATT
# B2: GCGGGCC (DNA:RNA)
# RNA: B1 RNA with U25G, U26C, C27G, A28G, A29G, G30C
# DNA 1: CAATCTGAATTCCGGTCTCCC
# DNA 2: TGGTGGCTACGACGGGATT
# B3: UAUUCUG (DNA:RNA)
# RNA: B1 RNA with U26A, C27U, A28U, A29C, G30U, C31G
# DNA 1: CAATCTGAATTCCGGTCTCCC
# DNA 2: TGGTGGCTACGACGGGATT
# B4: AAGAACA (DNA:RNA)
# RNA: B1 RNA with U25A, U26A, C27G, G30C, C31A
# DNA 1: CAATCTGAATTCCGGTCTCCC
# DNA 2: TGGTGGCTACGACGGGATT
# B5: GUGACUA (DNA:RNA)
# RNA: B1 RNA with U25G, C27G, A29C, G30U, C31A
# DNA 1: CAATCTGAATTCCGGTCTCCC
# DNA 2: TGGTGGCTACGACGGGATT
# B6: CCUUCGA (DNA:RNA)
# RNA: B1 RNA with U25C, U26C, C27U, A28U, A29C, C31A
# DNA 1: CAATCTGAATTCCGGTCTCCC
# DNA 2: TGGTGGCTACGACGGGATT
# B7: CAGAUGA (DNA:RNA)
# RNA: B1 RNA with U25C, U26A, C27G, A29U, C31A
# DNA 1: CAATCTGAATTCCGGTCTCCC
# DNA 2: TGGTGGCTACGACGGGATT
# B8: AUACUUU (DNA:RNA)
# RNA: B1 RNA with U25A, C27A, A28C, A29U, G30U, C31U
# DNA 1: CAATCTGAATTCCGGTCTCCC
# DNA 2: TGGTGGCTACGACGGGATT
# B9: GACUAAC (DNA:RNA)
# RNA: B1 RNA with U25G, U26A, A28U, G30A
# DNA 1: CAATCTGAATTCCGGTCTCCC
# DNA 2: TGGTGGCTACGACGGGATT
# B10: GCUGUAG (DNA:RNA)
# RNA: GGGAGACCGGAAUUCAGAUUGUCCGCUGUAGUUAAAUCCCGUCGUAGCCACCA
# DNA 1: CAATCTGAATTCCGGTCTCCC
# DNA 2: TGGTGGCTACGACGGGATT
# B11: GAGCUUA (DNA:RNA)
# RNA: B10 RNA with C26A, U27G, G28C, A30U, G31A
# DNA 1: CAATCTGAATTCCGGTCTCCC
# DNA 2: TGGTGGCTACGACGGGATT
# B12: GCAUGCA (DNA:RNA)
# RNA: B10 RNA with U27A, G28U, U29G, A30C, G31A
# DNA 1: CAATCTGAATTCCGGTCTCCC
# DNA 2: TGGTGGCTACGACGGGATT
# B13: CCAGUUG (DNA:RNA)
# RNA: B10 RNA with G25C, U27A, A30U
# DNA 1: CAATCTGAATTCCGGTCTCCC
# DNA 2: TGGTGGCTACGACGGGATT
# B14: AUUCACG (DNA:RNA)
# RNA: B10 RNA with G25A, C26U, G28C, U29A, A30C
# DNA 1: CAATCTGAATTCCGGTCTCCC
# DNA 2: TGGTGGCTACGACGGGATT
# B15: GGUCGCC (DNA:RNA)
# RNA: B10 RNA with C26G, G28C, U29G, A30C, G31C
# DNA 1: CAATCTGAATTCCGGTCTCCC
# DNA 2: TGGTGGCTACGACGGGATT
# B16: AUCCAGU (DNA:RNA)
# RNA: B1 RNA with U25A, A28C, C31U
# DNA 1: CAATCTGAATTCCGGTCTCCC
# DNA 2: TGGTGGCTACGACGGGATT
# B17: AGUGGAA (DNA:RNA)
# RNA: B10 RNA with G25A, C26G, U29G, G31A
# DNA 1: CAATCTGAATTCCGGTCTCCC
# DNA 2: TGGTGGCTACGACGGGATT
# B18: UCAUGCG (DNA:RNA)
# RNA: B10 RNA with G25U, U27A, G28U, U29G, A30C
# DNA 1: CAATCTGAATTCCGGTCTCCC
# DNA 2: TGGTGGCTACGACGGGATT
# B19: CAGGGGA (DNA:RNA)
# RNA: B10 RNA with G25C, C26A, U27G, U29G, A30G, G31A
# DNA 1: CAATCTGAATTCCGGTCTCCC
# DNA 2: TGGTGGCTACGACGGGATT
# B20: GAAUCAG (DNA:RNA)
# RNA: B10 RNA with C26A, U27A, G28U, U29C
# DNA 1: CAATCTGAATTCCGGTCTCCC
# DNA 2: TGGTGGCTACGACGGGATT
# Molecular target: T1, RBFOX1 RRM RbFoxmut (Fox-RRM*)
# Assay: EMSA; HiTS-Eq, 1 nM pool, 10 min; buffer printed only for the single-RNA assays: 10 mM Tris pH 7.5, 150 mM NaCl, 3.4 mM EDTA, 0.001% NP-40, 30 C
# Conditions: tags: His6 N-terminal (pET28a); label: 5' 32P
# Outline: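 A pool of RNA with 7 randomized nucleotides, 5′-radiolabelled and with DNA-annealed flanks, was equilibrated at 1 nM for 10 min in 50 µL with purified RbFox RRM, wild type or mutant, across increasing protein concentrations. Free RNA was separated by 8% native PAGE, excised, reverse-transcribed, barcoded by PCR and sequenced. Relative association constants were obtained from read-count changes of each RNA species versus the control reaction and normalised to the cognate motif.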
row,Binder,binding signal
1,B1,0.0679 KA relative to UGCAUGU
2,B2,0.207 KA relative to UGCAUGU
3,B3,0.0789 KA relative to UGCAUGU
4,B4,0.0811 KA relative to UGCAUGU
5,B5,0.119 KA relative to UGCAUGU
6,B6,0.0928 KA relative to UGCAUGU
7,B7,0.0698 KA relative to UGCAUGU
8,B8,0.0911 KA relative to UGCAUGU
9,B9,0.0655 KA relative to UGCAUGU
10,B10,0.174 KA relative to UGCAUGU
11,B11,0.103 KA relative to UGCAUGU
12,B12,0.828 KA relative to UGCAUGU
13,B13,0.116 KA relative to UGCAUGU
14,B14,0.14 KA relative to UGCAUGU
15,B15,0.0347 KA relative to UGCAUGU
16,B16,0.091 KA relative to UGCAUGU
17,B17,0.115 KA relative to UGCAUGU
18,B18,0.132 KA relative to UGCAUGU
19,B19,0.0912 KA relative to UGCAUGU
20,B20,0.389 KA relative to UGCAUGU
